B1: PhoQ; a variant is named by its letters at X, in order, P23837 (parent)
chain: MKKLLRLFFPLSLRVRFLLATAAVVLVLSLAYGMVALIGYSVSFDKTTFRLLRGESNLFYTLAKWENNKLHVELPENIDKQSPTMTLIYDENGQLLWAQRDVPWLMKMIQPDWLKSNGFHEIEADVNDTSLLLSGDHSIQQQLQEVREDDDDAEMTHSVAVNVYPATSRMPKLTIVVVDTIPVELKSSYMVWSWFIYVLSANLLLVIPLLWVAAWWSLRPIEALAKEVRELEEHNRELLNPATTRELTSLVRNLNRLLKSERERYDKYRTTLTDLTHSLKTPLXXLQXXLRSLRSEKMSVSDAEPVMLEQISRISQQIGYYLHRASMRGGTLLSRELHPVAPLLDNLTSALNKVYQRKGVNISLDISPEISFVGEQNDFVEVMGNVLDNACKYCLEFVEISARQTDEHLYIVVEDDGPGIPLSKREVIFDRGQRVDTLRPGQGVGLAVAREITEQYEGKIVAGESMLGGARMEVIFGRQHSAPKDE

The list shows a part of the results.

In the assay the parent is B1. Put plainly: enrichment ratio after two sorts for PhoP signalling (ratio (wild type AVST 3.29)); higher = more functional. The following applies: with PhoP (E. coli).
Regarding AANL, the enrichment ratio was at most 0.25.
Under GDQE stands at most 0.25; under GEGV, 0.932.
For the variant SLSR, the enrichment ratio was at most 0.25.
Turning to VCNC, the enrichment ratio was at most 0.25.
Under KRSL stands at most 0.25.
Under MENA stands at most 0.25.
For EFPN the value was at most 0.25.
Regarding RATS, the enrichment ratio is at most 0.25.
Turning to TWQN, the enrichment ratio is at most 0.25.
For WGWY the value was at most 0.25.
Under YDWF stands at most 0.25; under PQVE, at most 0.25.
Under LNPR stands at most 0.25.
Regarding MIFV, the enrichment ratio came to 1.18.
For MALR the value was at most 0.25; for LRAG, at most 0.25; for VPDE, at most 0.25.
Under ENTP stands at most 0.25; under LPDW, at most 0.25; under YMRC, at most 0.25.
Regarding KDKF, the enrichment ratio is at most 0.25.
MLPH: the enrichment ratio was at most 0.25.
Under TKKT stands at most 0.25; under AIPL, 5.13; under WQVI, at most 0.25.
For the variant PVPY, the enrichment ratio is at most 0.25.
Under YSVV stands 3.37; under RQAC, at most 0.25.
Regarding TGEY, the enrichment ratio was at most 0.25.
Under GYDY stands at most 0.25; under FPEY, at most 0.25.
Under RFWV stands at most 0.25; under TTIE, at most 0.25.
Under HGKE stands at most 0.25; under AVWP, at most 0.25.
Take YSTI: the enrichment ratio was 4.58.
Under ESKM stands at most 0.25.
As for IRTW, the enrichment ratio is at most 0.25.
For SADD the value was at most 0.25.
For IILN the value was at most 0.25.
For HVSA the value was at most 0.25.
Consider PMML, for which the enrichment ratio was at most 0.25.
Under FPHC stands at most 0.25; under RMCS, at most 0.25.
For YEFF the value was at most 0.25; for VCVS, at most 0.25.
Under SPWI stands at most 0.25; under KGGY, at most 0.25.
For SIHC, the enrichment ratio was at most 0.25.
For SGAR the value was at most 0.25; for EVSD, at most 0.25; for KKST, at most 0.25.
Under HKHQ stands at most 0.25; under TGFG, at most 0.25.
For FKEM, the enrichment ratio is at most 0.25.
Under WMGA stands at most 0.25; under GFIR, at most 0.25.
Under QHCR stands at most 0.25; under EWTY, at most 0.25.
For FNDF the value was at most 0.25.
In the case of WLCY, the enrichment ratio is at most 0.25.
Consider NHMF, for which the enrichment ratio is at most 0.25.
Under KQVD stands at most 0.25; under VRPT, at most 0.25.
With FYSL, the enrichment ratio was at most 0.25.
Under MDYE stands at most 0.25; under PHVQ, at most 0.25.
Consider GAFK, for which the enrichment ratio was at most 0.25.
For HIQH, the enrichment ratio is at most 0.25.
Under GRTT stands at most 0.25.
Under KRKQ stands at most 0.25; under HGVG, at most 0.25.
ALYG: the enrichment ratio is at most 0.25.
Under FWPI stands at most 0.25.
QTWI: the enrichment ratio was determined as 3.53.
For DPGK the value was at most 0.25; for HNDA, at most 0.25.
For DLNH the value was at most 0.25; for PKLV, at most 0.25; for TILP, at most 0.25.
NYGI: the enrichment ratio is at most 0.25.
Under YEST stands 12.8; under VPMR, at most 0.25.
Under VSKY stands at most 0.25; under HKHF, at most 0.25; under VAQR, at most 0.25.
For WVIS the value was at most 0.25; for SMVI, 5.88.
On to KATI, for which the enrichment ratio was at most 0.25.
Regarding VIMY, the enrichment ratio is at most 0.25.
On to DEDR, for which the enrichment ratio was at most 0.25.
For MMKI the value was at most 0.25; for KHCD, at most 0.25; for HEPH, at most 0.25.
For TRPH the value was at most 0.25; for FLVH, at most 0.25.
Under FCLE stands 4.04.
TIKL: the enrichment ratio is at most 0.25.
For MDIS the value was at most 0.25.
For QTRR, the enrichment ratio is at most 0.25.
Turning to ICWI, the enrichment ratio is at most 0.25.
For IMEE the value was at most 0.25; for PQAT, at most 0.25.
Under FDIL stands at most 0.25.
Regarding LLTP, the enrichment ratio was at most 0.25.
For STLK the value was 10.3; for TVEY, 0.327; for VTMY, at most 0.25.
Under PKMV stands at most 0.25.
Under MYYN stands at most 0.25; under GGSK, at most 0.25.
As for HIRT, the enrichment ratio was at most 0.25.
On to SQKE, for which the enrichment ratio was at most 0.25.
Take GSIT: the enrichment ratio stood at 2.65.
Take WFVF: the enrichment ratio is at most 0.25.
Under EQHF stands at most 0.25; under IIQR, at most 0.25; under LAVM, 0.451.
Regarding FPES, the enrichment ratio was at most 0.25.
For MKLD the value was at most 0.25; for VFLC, at most 0.25; for ITDH, at most 0.25.
Under EITG stands at most 0.25; under RRPQ, at most 0.25; under KEDD, at most 0.25.
Under LDWD stands at most 0.25; under WQNY, at most 0.25; under YVRH, at most 0.25.
Regarding IWSK, the enrichment ratio was at most 0.25.
Under FTNC stands at most 0.25; under WNLV, at most 0.25.
Under YQED stands at most 0.25; under PSDQ, at most 0.25; under NPNN, at most 0.25.
Under HLWN stands at most 0.25; under EQLI, at most 0.25; under TKMY, 24.
Consider PMCE, for which the enrichment ratio was at most 0.25.
Consider IDCQ, for which the enrichment ratio is at most 0.25.
As to QEGY, the enrichment ratio was at most 0.25.
Under KEPK stands at most 0.25.
Under WPKR stands at most 0.25; under VMEC, at most 0.25; under RRHL, at most 0.25.
Under SNQF stands 3.81.
For PFVA, the enrichment ratio is at most 0.25.
For WTNT the value was at most 0.25; for LVRM, at most 0.25.
For EILH, the enrichment ratio was at most 0.25.
Take NMFE: the enrichment ratio was at most 0.25.
Under VSSL stands 1.57; under ILND, at most 0.25.
